Values joined by “and” are separate entries in the source; they are usually repeats but may differ in a detail not shown here. Identical values can stand only once.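 Interpolation was linear, between the two tested concentrations surrounding the appropriate level; five concentrations were tested over 48 hours in 96-well plates. GI50 = concentration required for 50% inhibition of growth. TGI is the concentration that stops growth completely.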 Peptide text beside a SMILES is read from it. Bounds are passed on as bounds.

Consider 81 compounds from PubChem BioAssay (NCI).

This assay has as its system NCI-H322M lung. The assay is described as follows: NCI tumour cell line growth inhibition, 48 h.
Turning to `CC1CN(c2cc3c(cc2F)c(=O)c(C(=O)O)cn3-c2ccc(N3CCN(C)CC3)cn2)CC(C)N1` (stereo unspecified), the TGI was greater than 100 µM.
On the same count and under the same terms, the same measure for `N#Cc1sc2c(c1OC(=O)c1ccco1)c(=O)n(-c1ccccc1)c(=S)n2-c1ccccc1`: greater than 100 µM; for `Cc1cc2nc3c(C#N)c(C)c(CCCl)c(Cl)n3c2cc1C`: 18.1 µM; for `Cc1cnc2c(c1)C(=O)N(c1ccc(Oc3ccccc3)cc1)S2(=O)=O`: greater than 100 µM.
The same measure, in the same setting: the same measure for `O=c1c2cccnc2oc2c(Cl)cc(-c3nn[nH]n3)cc12`: greater than 100 µM; for `CCCCCCCCCCCCCCNCC(OC)OC`: 30 µM.
`NS(=O)(=O)c1ccc(-n2nc3c(c2-c2cccs2)Cc2ccccc2-3)cc1`: the GI50 was 11.9 µM and the TGI came out at 34.6 µM.
On to `COCC(C#N)NC1CC(OC2CC(O)(C(=O)CO)Cc3c(O)c4c(c(O)c32)C(=O)c2c(OC)cccc2C4=O)OC(C)C1O` (stereo unspecified), for which the TGI is 2.97 µM.
The same measure, in the same setting: the same measure for `CC(C)(C)OC(=O)N1C(=O)C2CCCC21` (stereo unspecified): greater than 100 µM.
On the same count and under the same terms, the same measure for `Oc1c(C(Nc2ccccn2)c2ccccc2)ccc2cccnc12` (stereo unspecified): 42.8 µM; for `CSc1nnnc2ccccc12`: greater than 100 µM.
Take `CC1=CC(C)=N/C(=N/S(=O)(=O)c2cc(C)c(Cl)cc2SCc2ccccc2)NN1`: the GI50 is greater than 100 µM and the TGI is greater than 100 µM.
Compound `Cc1ccc(C)n1-c1ccccc1C1C=Cn2c(=O)oc3c(OC(C)C)c(OC(C)C)c(O)c1c32` (stereo unspecified) yielded a TGI greater than 100 µM.
For the compound `COc1nn(C)cc1Nc1nccc(-c2c[nH]c3c(NC(=O)[C@@H](C)N4CCN(C)CC4)cccc23)n1`, the GI50 was greater than 100 µM and the TGI was greater than 100 µM.
For `COc1ccccc1-c1csc(CCC(N)C(=O)O)n1` (stereo unspecified), the TGI is greater than 100 µM.
On the same count and under the same terms, the same measure for `Cc1ccc(NC(=O)COc2ccc(Cl)cc2)cc1Cl`: greater than 100 µM; for `NC(=O)NNC/C(Cl)=C(\Cl)C(=O)O`: greater than 100 µM.
Still for that read-out and setting: the same measure for `COC(=O)C1=C(C)NC(C)=C(C(=O)OC)C1c1cccc(/[N+]([O-])=C/c2ccccc2)c1`: greater than 100 µM; for `COc1cc(/C=C2\[C@@H]3NC(Cc4c(OC)c(C)c(OC)c(OC)c43)C(=O)N2Cc2ccccc2)c(OC)c(C)c1OC`: greater than 100 µM; for `O=C(CSc1nc2ccc(I)cc2c(=O)n1Cc1ccccc1)Nc1ccccc1`: 50.4 µM.
Still for that read-out and setting: the same measure for `[N-]=[N+]=Nc1cc(=O)[nH]c2ccccc12`: greater than 100 µM; for `CCC(O)CCCCCCCCCCCCCCC(=O)O` (stereo unspecified): greater than 100 µM.
The compound `Cc1cc(N(CCC#N)CCC#N)ccc1/C(N=Nc1ccc(C(=O)O)cc1)=N\NC(=O)c1ccccc1` showed a TGI greater than 100 µM.
Still for that read-out and setting: under `COc1cc(C2c3cc4c(cc3[C@@H](NC3CCN(Cc5ccccc5)CC3)C3COC(=O)[C@H]23)OCO4)cc(OC)c1O` (stereo partly specified) stands 10.8 µM and 4.34 µM.
As for `Cc1[nH]nc(C(F)(F)F)c1Cc1sc2c(c1C(=O)N1C[C@](C)(O)CO1)c(=O)n(C)c(=O)n2C(C)C`, the GI50 was greater than 100 µM and the TGI was greater than 100 µM.
`C[C@]12CCC(=O)C=C1C[C@@H](O)[C@@H]1[C@@H]2CC[C@@]2(C)[C@H]1CC[C@]2(C)O`: the TGI was greater than 100 µM.
The same measure, in the same setting: the same measure for `O=S(=O)(O)c1ccc(O)c(N=Nc2c(O)ccc3ccccc23)c1`: greater than 100 µM.
On the same count and under the same terms, the same measure for `Cc1cc(N(CCC#N)S(=O)(=O)c2ccccc2)ccc1C=Nc1ccc(C(=O)O)cc1`: greater than 54.5 µM.
Turning to `NC1CC(=O)c2c(-c3cccs3)sc(-c3cccs3)c21` (stereo unspecified), the GI50 is 44.4 µM and the TGI is greater than 100 µM.
For `O=C1CCCC1CC(CN1CCOCC1)Sc1nnnn1-c1ccccc1` (stereo unspecified), the TGI is greater than 100 µM.
Consider `Cn1nc(C(F)(F)F)cc1-c1cc(Cl)c(OCc2ccc(Cl)cc2)c(-c2ccc(Cl)c(C(F)(F)F)c2)c1O`, for which the GI50 is 1.49 µM and the TGI turned out to be 6.31 µM.
`COC1(OC)CC(CO)(COc2cc(Cl)nc(N)n2)C1` gave a TGI greater than 100 µM.
The same measure, in the same setting: the same measure for `C=CC1=C(C)C(/C=c2\[nH]/c(=C/c3[nH]c(CC4NC(=O)C(C)/C4=C\C)c(C)c3CCC(=O)O)c(CC(=O)O)c2C)=NC1=O` (stereo unspecified): greater than 100 µM.
As to `Nc1ccc(C#Cc2ccccc2C#CCCCCO)cc1`, the GI50 is 17.7 µM and the TGI came out at 35.5 µM.
Compound `CC1=C(CCC(C)CO)O[C@H]2C[C@H]3[C@@H]4CC[C@H]5C[C@@H](O)CC[C@]5(C)[C@H]4CC(=O)[C@]3(C)[C@@H]12` (stereo partly specified) showed a TGI of 68.2 µM.
Same read-out and setting: the same measure for `C1=CC2C(C3CN(c4ccccc4)N=C13)C1C3C4C=CC21C=CC43` (stereo unspecified): greater than 100 µM; for `CC1(C)C2CC3C(C)(C2)C31c1cc(Cl)ccc1N` (stereo unspecified): 36.5 µM.
On to `Nc1nc(-c2ccc3c(c2)/C(=C\c2cc(Br)c(O)c(Br)c2)C(=O)N3)cs1`, for which the GI50 was greater than 25 µM and the TGI is greater than 25 µM.
Take `COc1ccc(C(=O)/C=C/c2ccc(OCc3cccc(C(F)(F)F)c3)c(OC)c2)cc1OC`: the GI50 is 65.2 µM and the TGI is greater than 1000 µM.
Regarding `CC1(C)CC(=O)C(CC2C(=O)CCCC2=O)C(=O)C1`, the TGI is greater than 100 µM.
Same read-out and setting: under `COc1cc2nc(-c3cccs3)nc(N3CCN(c4ccccc4)CC3)c2cc1OC` stands greater than 100 µM.
Consider `CC1Cc2c(Cl)ncnc2N(C)c2ccccc21` (stereo unspecified), for which the GI50 is 2.57 µM and the TGI was determined as 35.7 µM.
On the same counts, the results for `Clc1cnc(Nc2ccc(OCCN3CCCC3)cc2)nc1NCc1ccco1` are 2.61 µM and 9.7 µM.
As to `O=C(Nc1ccc(Br)cc1)C(=O)C(C(=O)c1ccc(Cl)c(Cl)c1)C1OC(=O)c2ccccc21` (stereo unspecified), the TGI is 70.4 µM.
Compound `Cc1nc(N)c(N2CCN(S(=O)(=O)N(Cc3ccccc3)Cc3ccccc3)CC2)c(=O)[nH]1` returned a TGI of 47.5 µM.
`NS(=O)(=O)c1ccc(-c2ccc([As](=O)(O)O)cc2)cc1` showed a TGI greater than 100 µM.
Still for that read-out and setting: the same measure for `O=c1c(O)c(-c2ccccc2)oc2c(CP(=O)(O)O)cccc12`: greater than 100 µM.
Regarding `Cc1c(C(=O)Nc2ccc(N3C[C@@H](C)O[C@@H](C)C3)nc2)cccc1-c1ccc(OC(F)(F)F)cc1`, the GI50 is 11.6 µM and 12.6 µM; the TGI is 40.6 µM and 39.6 µM.
In turn, `COC(=O)CC[C@@H](C)[C@H]1CC[C@H]2[C@@H]3CC[C@@H]4C[C@H](O)CC[C@]4(C)[C@H]3CC[C@]12C` had a TGI of 35.8 µM.
`CCCCCCCCN(CCCCCCCC)CC(O)c1cc(-c2ccccc2)nc2ccc(OC)cc12` (stereo unspecified): the GI50 was greater than 100 µM and the TGI was greater than 100 µM.
`COC1C(O)C(C)OC(O[C@H]2CC[C@@]3(C)C(CC[C@@H]4[C@@H]3CC[C@]3(C)[C@@H](C(C)OC5OC(CO)C(O)C(O)C5O)CC[C@]43O)C2)C1O` (stereo partly specified): the TGI was greater than 25 µM.
On the same count and under the same terms, under `CC1(c2ccc(F)cc2)C2C(=O)NC(=O)C1C(=O)NC2=O` (stereo unspecified) stands greater than 100 µM.
In the case of `C=CC(=O)N1C/C(=C\c2ccc(OC)cc2)C(=O)/C(=C/c2ccc(OC)cc2)C1`, the TGI turned out to be 12.7 µM.
`COc1cccc(N2CC(O)=C(c3nc4ccccc4s3)C2=N)c1`: the GI50 was 5.42 µM and the TGI is greater than 100 µM.
For `Nc1nc2cc(Cl)ccc2n1N`, the TGI is greater than 100 µM.
The same measure, in the same setting: under `C[Si](C)(C)OC1(C#N)c2ccccc2CCCC12CCCC2` (stereo unspecified) stands greater than 100 µM.
In the case of `N#C/C(=C\c1ccc[nH]1)c1cc(-c2ccc(Cl)cc2)nn1-c1ccccc1`, the GI50 is 3.51 µM and the TGI was greater than 100 µM.
`c1ccc2c(c1)nnn2C1CCCCO1` (stereo unspecified): the TGI is greater than 100 µM.
For `Cc1nnc(N/N=C/c2ccc([N+](=O)[O-])o2)[nH]c1=O`, the GI50 is 0.633 µM and the TGI is greater than 26.9 µM.
For the compound `CCOC(=O)Cc1[nH]c(C(=O)c2ccccc2)cc1C(=O)c1ccccc1`, the TGI was greater than 100 µM.
The same measure, in the same setting: the same measure for `Cc1cn(C2CC(O)C(Cn3nncc3Cn3nc(Br)c(=O)[nH]c3=O)O2)c(=O)[nH]c1=O` (stereo unspecified): greater than 100 µM; for `O=C(O)C(Cc1ccccc1)Cc1ccccc1`: greater than 100 µM; for `CCOc1ccccc1N=NC1C(=O)N(C(=O)CC(=O)Nc2ccccc2C)N=C1C` (stereo unspecified): greater than 100 µM.
`C=CCc1c(O)c(C(=O)/C=C/c2ccc(Cl)cc2)c(OC)c2ccoc12`: the GI50 is 4.88 µM and the TGI came to 17.7 µM.
Turning to `CN(C)C(=O)N1N[C@H](c2ccccc2)[C@@H]1c1ccccc1`, the TGI was greater than 100 µM.
In the case of `CN1CCN(Cc2ccc(NC(=O)c3cncc(C#Cc4ccc(N)nc4)c3)cc2C(F)(F)F)CC1`, the GI50 was 1.62 µM and the TGI came out at 8.95 µM.
In turn, `O=S(=O)(O)c1cc(S(=O)(=O)O)c2cc(N=Nc3ccc(N=Nc4ccc(/C=C/c5ccc(N=[N+]([O-])c6ccc(/C=C/c7ccc(N=Nc8ccc(N=Nc9ccc%10cc(S(=O)(=O)O)cc(S(=O)(=O)O)c%10c9)cc8)cc7S(=O)(=O)O)c(S(=O)(=O)O)c6)cc5S(=O)(=O)O)c(S(=O)(=O)O)c4)cc3)ccc2c1` showed a TGI greater than 100 µM.
Still for that read-out and setting: the same measure for `CCCCCCCCCCCC(=O)N(CCCCCCCCC)CC(O)C(O)C(OC1OC(CO)C(O)C(O)C1O)C(O)CO` (stereo unspecified): 37.6 µM.
Take `CC(=O)/C=C(/C)[O-].CC(=O)/C=C(/C)[O-].CC(=O)[CH-]C(C)=O.CC(=O)[CH-]C(C)=O.[Zr+4]`: the GI50 is greater than 100 µM and the TGI is greater than 100 µM.
With `COP(=O)(CP(=O)(OC)OCCC(C)CCC=C(C)C)OC` (stereo unspecified), the TGI is greater than 100 µM.
The same measure, in the same setting: under `C=C(C)C1(Sc2ccc(OC)cc2)CC1` stands greater than 100 µM.
Still for that read-out and setting: under `Cc1cc(C)[n+]2c(c1)C=CC2` stands greater than 100 µM.
On the same count and under the same terms, the same measure for `O=C1Sc2ccccc2C(=O)N2CCSC12` (stereo unspecified): greater than 100 µM; for `CC1(C)CC(=O)c2c(N)n[nH]c2C1`: greater than 100 µM; for `CC1(C)CCCCCC(O)C(O)CCC(C)(C)C1=O` (stereo unspecified): greater than 100 µM.
`COc1ccc(N=NC2=C(O)CCC2=O)cc1` showed a TGI greater than 100 µM.
The compound `Cc1ccc(/C=C2\CCCCC2=O)cc1` came in with a TGI greater than 100 µM.
On the same count and under the same terms, under `CCOP(=O)(OCC)/C(=C/n1c(=S)[nH]c2ccccc21)C(=O)OC` stands greater than 100 µM; under `CC(C)C[C@H](NC(=O)[C@H](CC(C)C)NC(=O)[C@@H](Cc1c[nH]c2ccccc12)NC(=O)[C@H](Cc1ccccc1)NC(=O)[C@@H](Cc1c[nH]c2ccccc12)NC(=O)[C@H](CCC(N)=O)NC(=O)[C@@H](CCC(N)=O)NC(=O)[C@@H]1CCCN1C(=O)[C@@H](CCCCN)NC(=O)[C@H]1CCCN1C(=O)[C@H](N)CCCN=C(N)N)C(N)=O` (HELM PEPTIDE1{[dR].[dP].[dK].P.[dQ].Q.[dW].F.[dW].L.L.[am]}$$$$V2.0), greater than 100 µM.
The same measure, in the same setting: under `CC(C)OC1=C(CC2(C)OCCO2)C(=O)C12OCCO2` stands greater than 100 µM.
In the case of `Oc1c(C(c2ccc(F)cc2)N2CCCCC2)ccc2cncnc12` (stereo unspecified), the GI50 is 1.73 µM and the TGI is greater than 100 µM.
